{"source": "the supplement of paper PMC3334620", "note": "The full ranking holds about 33,000 sequences; the median of “E-score (-0.5 to 0.5)” is about -0.04, and the highest 2% start at about 0.36. Some of the results follow.", "data": [{"molecular_target": "T1, Hmlalpha2 (UniProt P0CY09)", "T1 sequence": "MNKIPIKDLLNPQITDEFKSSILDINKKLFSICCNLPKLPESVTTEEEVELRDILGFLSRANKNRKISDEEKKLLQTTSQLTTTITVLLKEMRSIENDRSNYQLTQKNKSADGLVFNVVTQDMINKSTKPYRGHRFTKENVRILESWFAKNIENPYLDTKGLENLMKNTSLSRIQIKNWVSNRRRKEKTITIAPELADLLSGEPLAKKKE", "assay": "PBM E-score (8-mer binding enrichment) (E-score (-0.5 to 0.5)); higher = stronger / more preferred TF binding; most listed sequences are background and not binding sites", "conditions": "protein concentration: 200 nM; construct: GST-full length", "method_in_brief": "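Yeast transcription factors, full-length or as DNA-binding domains, were expressed with a GST tag using PURExpress in vitro transcription/translation. At about 100-200 nM they were applied to universal all-10-mer Agilent arrays, double-stranded by primer extension on fresh or once-stripped slides. Fluorescent anti-GST detected bound protein, and masliner normalised the scans. E-scores for ungapped eight-base words, pooled with reverse complements, came from the Universal PBM Analysis Suite.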", "values": [{"sequence": "GCACTATA", "PBM E-score": -0.0092}, {"sequence": "CGCGATAA", "PBM E-score": 0.0422}, {"sequence": "CAGATGGA", "PBM E-score": -0.0765}, {"sequence": "ACTACACA", "PBM E-score": 0.406}, {"sequence": "TGACAGAA", "PBM E-score": 0.0794}, {"sequence": "ATGAAAAC", "PBM E-score": 0.17}, {"sequence": "AACAGGTC", "PBM E-score": 0.0824}, {"sequence": "CACAGACA", "PBM E-score": 0.168}, {"sequence": "CCGATAAA", "PBM E-score": -0.0565}, {"sequence": "GGGTGATA", "PBM E-score": -0.271}, {"sequence": "CTCCTAAG", "PBM E-score": -0.115}, {"sequence": "AGGGGCCG", "PBM E-score": -0.365}, {"sequence": "ATGCATTG", "PBM E-score": 0.122}, {"sequence": "AAACTGGG", "PBM E-score": -0.278}, {"sequence": "ATTACGCA", "PBM E-score": 0.435}, {"sequence": "CTATGCCC", "PBM E-score": -0.266}, {"sequence": "ATTCCATG", "PBM E-score": 0.122}, {"sequence": "AAACCTCT", "PBM E-score": -0.08}, {"sequence": "CGAGGTCC", "PBM E-score": -0.214}, {"sequence": "GACCATCC", "PBM E-score": -0.268}, {"sequence": "GATATACA", "PBM E-score": 0.339}, {"sequence": "ACTCCGTG", "PBM E-score": -0.0267}, {"sequence": "AGAGTTCC", "PBM E-score": -0.262}, {"sequence": "ACCTTGTC", "PBM E-score": 0.0297}, {"sequence": "AGAGTCCG", "PBM E-score": -0.152}, {"sequence": "CCTTGGTA", "PBM E-score": 0.14}, {"sequence": "CACGTCGA", "PBM E-score": 0.109}, {"sequence": "AGCACTAA", "PBM E-score": -0.106}, {"sequence": "AGGTAGGC", "PBM E-score": -0.315}, {"sequence": "CATTGAGG", "PBM E-score": -0.0995}, {"sequence": "CGGGATTC", "PBM E-score": 0.00245}, {"sequence": "CTTTGGTC", "PBM E-score": -0.0966}, {"sequence": "AACGCTAA", "PBM E-score": 0.00237}, {"sequence": "AGTTCTCC", "PBM E-score": -0.286}, {"sequence": "GCTTGTAA", "PBM E-score": 0.411}, {"sequence": "CTAAATCC", "PBM E-score": -0.229}, {"sequence": "ATCCATGG", "PBM E-score": -0.148}, {"sequence": "CTCACAAG", "PBM E-score": -0.0443}, {"sequence": "CGTATATA", "PBM E-score": 0.276}, {"sequence": "GAGATCAA", "PBM E-score": -0.0313}, {"sequence": "AAGCTGAT", "PBM E-score": 0.0747}, {"sequence": "CCCCGAAG", "PBM E-score": -0.211}, {"sequence": "CCTATAGA", "PBM E-score": -0.193}, {"sequence": "ATGTTTCA", "PBM E-score": 0.13}, {"sequence": "GAAGGGAC", "PBM E-score": -0.27}, {"sequence": "AAGACCAT", "PBM E-score": -0.215}, {"sequence": "CCGGGACC", "PBM E-score": -0.341}, {"sequence": "GGATCAAA", "PBM E-score": -0.0579}, {"sequence": "GGATCGCC", "PBM E-score": -0.144}, {"sequence": "AAAGACGA", "PBM E-score": -0.0132}, {"sequence": "AGGGAGAG", "PBM E-score": -0.258}, {"sequence": "GACAGGTA", "PBM E-score": -0.0962}, {"sequence": "CACAGCAC", "PBM E-score": 0.165}, {"sequence": "ACAAGTAC", "PBM E-score": 0.165}, {"sequence": "GGCTACAC", "PBM E-score": 0.164}, {"sequence": "AGGACAAG", "PBM E-score": -0.0379}, {"sequence": "AATTTTCG", "PBM E-score": 0.046}, {"sequence": "ACGCGAGA", "PBM E-score": 0.186}, {"sequence": "GCAAACGA", "PBM E-score": 0.119}, {"sequence": "CTATCTTC", "PBM E-score": -0.02}, {"sequence": "GAGCAAAC", "PBM E-score": 0.00373}, {"sequence": "AGGACTAT", "PBM E-score": -0.156}, {"sequence": "GAAGCGGA", "PBM E-score": -0.149}, {"sequence": "CCCGGCGA", "PBM E-score": -0.168}, {"sequence": "CCCCTAAC", "PBM E-score": -0.217}, {"sequence": "CATCACAG", "PBM E-score": 0.0154}, {"sequence": "ATGACCAT", "PBM E-score": 0.0709}, {"sequence": "CACGAAGG", "PBM E-score": -0.00404}, {"sequence": "AACGACGT", "PBM E-score": 0.148}, {"sequence": "CTGCATGA", "PBM E-score": -0.271}, {"sequence": "CCAACGCG", "PBM E-score": 0.202}, {"sequence": "AACGCCAT", "PBM E-score": 0.00213}, {"sequence": "CATTGACA", "PBM E-score": 0.255}, {"sequence": "AGTATATG", "PBM E-score": -0.0273}, {"sequence": "CCCTCGTA", "PBM E-score": 0.0861}, {"sequence": "AGGGCGTG", "PBM E-score": -0.0225}, {"sequence": "CGCCCGGC", "PBM E-score": -0.302}, {"sequence": "GGAACCGA", "PBM E-score": -0.13}, {"sequence": "CCAATGAA", "PBM E-score": -0.202}, {"sequence": "CCCCCTAC", "PBM E-score": -0.279}, {"sequence": "CGTGTATC", "PBM E-score": 0.332}, {"sequence": "ACCACTGA", "PBM E-score": -0.123}, {"sequence": "ATATAGTC", "PBM E-score": 0.0845}, {"sequence": "AAGATTCC", "PBM E-score": 0.0157}, {"sequence": "GCTGAACC", "PBM E-score": -0.0421}, {"sequence": "ACACCCGA", "PBM E-score": -0.012}, {"sequence": "GGAGTACC", "PBM E-score": -0.114}, {"sequence": "ATGAAATC", "PBM E-score": 0.18}, {"sequence": "CGAGAGAA", "PBM E-score": -0.0824}, {"sequence": "CCGTAATA", "PBM E-score": 0.159}, {"sequence": "CGAGGCAC", "PBM E-score": -0.203}, {"sequence": "CTCGTTTC", "PBM E-score": -0.12}, {"sequence": "GGAATTAC", "PBM E-score": 0.271}, {"sequence": "AATAGGAT", "PBM E-score": 0.105}]}]}
